The results in this text go back to paper PMC7819943, “Rice protein-binding microarrays: a tool to detect cis-acting elements near promoter regions in rice”.

This is one part of the list.

The test concerns the target T1, OsWOX13 (Oryza sativa, UniProt Q5QMM3 1-267).
T1 sequence: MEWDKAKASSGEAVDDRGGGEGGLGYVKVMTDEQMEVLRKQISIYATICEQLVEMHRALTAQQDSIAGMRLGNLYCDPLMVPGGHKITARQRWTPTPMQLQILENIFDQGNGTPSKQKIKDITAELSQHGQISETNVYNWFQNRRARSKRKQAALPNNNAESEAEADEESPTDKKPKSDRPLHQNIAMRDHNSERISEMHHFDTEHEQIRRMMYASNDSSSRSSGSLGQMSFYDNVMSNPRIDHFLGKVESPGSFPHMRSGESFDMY
The test can be described thus: protein-binding microarray (RPBM); PBS, 2% BSA, 51.3 ng/ul salmon testes DNA, 50 uM zinc acetate, 200 nM TF, 25 C, 1 h; high values mean tight binding. To be noted: protein: recombinant; tags: N-terminal polyhistidine and DsRed monomer fusion (pET32a); label: CyDye5-dUTP incorporated in the synthesized complementary strand; 3' TTTTT single-stranded linker to array surface; dsDNA, one strand shown. The procedure, abridged: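 The binding signal is fluorescence intensity per array feature (arbitrary units). Readings came from an Axon 4000B scanner after a washed, 2% BSA-blocked, double-stranded custom Agilent array had been incubated for 1 h at 25 °C with 200 nM protein and 50 µM zinc acetate. The protein was a Ni–NTA-purified transcription factor fused N-terminally to polyhistidine and DsRed, expressed in E. coli BL21-CodonPlus.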
As to “TTCCCTTCTTAACCAATCATAATCCTGCACTATTCATTTTCGGAGTCACCTAGTGCAG”, the binding signal is 3760 fluorescence intensity (a.u.). Take “CTAATAGAATGACGTGTAATTCCTTGTCACATTCATAAAACGGAGTCACCTAGTGCAG”: the binding signal was 7340 fluorescence intensity (a.u.). Next, “ACAATAAAATTTATTGATGCCAGAAATATGCCGTTTGTCTCGGAGTCACCTAGTGCAG”: 4740 fluorescence intensity (a.u.); “TTTTCTTATTGATTATAGATTTATAGTAGTTCTGTGTGTACGGAGTCACCTAGTGCAG”: 36800 fluorescence intensity (a.u.); “TGAACTGAAATAATCAAAACTACAAATTAGTTGAAACTGTCGGAGTCACCTAGTGCAG”: 5640 fluorescence intensity (a.u.). Turning to “ACGACTGATTTGCGACGCTGTTGGGCGAGGTAGAGGCGGCCGGAGTCACCTAGTGCAG”, the binding signal was 12300 fluorescence intensity (a.u.). With “TAGCTAAATGTCAATTTTCTCGTCTATGTGGCAGTCGCCACGGAGTCACCTAGTGCAG” the figure was 19100 fluorescence intensity (a.u.); with “AAAGATTGACCAATGGCAAGCTAGCACAAGACACCAAGCACGGAGTCACCTAGTGCAG”, 19300 fluorescence intensity (a.u.). Next, “TCATTTGATGGATGATTGCAAAGTAAAGGTTTCATTGATCCGGAGTCACCTAGTGCAG”: 32100 fluorescence intensity (a.u.); “CCATAATATGTGGGTGATTTGTTGCAAAAGTTTGTTTTAACGGAGTCACCTAGTGCAG”: 10800 fluorescence intensity (a.u.); “GAATCAATCAAATAAAATCTATTATGTATATTCATTCATACGGAGTCACCTAGTGCAG”: 29300 fluorescence intensity (a.u.). As to “ACCCTTCTAAAATTTGTCATTGTCAAATTTTAACACATTTCGGAGTCACCTAGTGCAG”, the binding signal was 5980 fluorescence intensity (a.u.). As for “TGTAATTAAGCTATGAGTAATTAGCCATAGTTTCTTTAAACGGAGTCACCTAGTGCAG”, the binding signal is 6440 fluorescence intensity (a.u.).

Take “GATGATGAATGGTTATAGAGGCAGGGCACCATCCCACCTTCGGAGTCACCTAGTGCAG”: the binding signal is 6420 fluorescence intensity (a.u.). Next, “AAGATTCAATTAAACTTTTAAAATTTAACCATCAATAAATCGGAGTCACCTAGTGCAG”: 11500 fluorescence intensity (a.u.). With “TACTAGTTACTATAGCTGTGATTGGTGTTTAATTGGTTACCGGAGTCACCTAGTGCAG” the figure was 25600 fluorescence intensity (a.u.); with “TGCTAGTAATTATGAAAGTACTTCCCTCAAGGCACCCAATCGGAGTCACCTAGTGCAG”, 3820 fluorescence intensity (a.u.); with “AATAAACTGATTTCTACGAAATTTCTATAAAATAGTTACTCGGAGTCACCTAGTGCAG”, 17300 fluorescence intensity (a.u.). In the case of “TATACATATCCAATTAATTAATACAAGGATGTAGGGCTCTCGGAGTCACCTAGTGCAG”, the binding signal was 15800 fluorescence intensity (a.u.). With “CGCCTAATATTAATTGCATCTTATTGCTGTCTTTTGTATTCGGAGTCACCTAGTGCAG” the figure was 15700 fluorescence intensity (a.u.); with “CCTGATTTCACTGGATGCCATGATTTACAATATATGTGAGCGGAGTCACCTAGTGCAG”, 28800 fluorescence intensity (a.u.). With “GGGTGGGATTGGGATTGGGAAATGAATGAAGGGTTAGGATCGGAGTCACCTAGTGCAG” the figure was 24300 fluorescence intensity (a.u.). Next, “GTAGGGATTGGTTGATATATATAAGAATGCAAATGAAGTTCGGAGTCACCTAGTGCAG”: 5080 fluorescence intensity (a.u.). For “TTTGATGATTCTCATTAGGTATTTCCCCACAGATAACAGACGGAGTCACCTAGTGCAG”, the binding signal was 3560 fluorescence intensity (a.u.). Next, “ATCCAATCAATAATGAGCGATGCGATGAATGATGCATTGTCGGAGTCACCTAGTGCAG”: 31300 fluorescence intensity (a.u.); “CTCTCATAATTAATCCATCGCTTCGAAAACGATTATCGGTCGGAGTCACCTAGTGCAG”: 7270 fluorescence intensity (a.u.); “AGAGATGATGTGACTGAAAAGTTGTGTGTGTATGATAGGTCGGAGTCACCTAGTGCAG”: 6250 fluorescence intensity (a.u.).

Consider “AAATTTTGAATTGTTTGAAATTGACTCCTAAACACATTGACGGAGTCACCTAGTGCAG”, for which the binding signal was 3840 fluorescence intensity (a.u.).

For “GTGATGGAATTTACACCTATTGTCTTATTCAGGTTTTGATCGGAGTCACCTAGTGCAG”, the binding signal is 3540 fluorescence intensity (a.u.). Next, “CGGAATTGAATTTTGGTTGAAACATTGTTTCCAATACGCACGGAGTCACCTAGTGCAG”: 16900 fluorescence intensity (a.u.); “AAAAGATTGAGAAATCATTCTTTTAGTACAGGTCATACCTCGGAGTCACCTAGTGCAG”: 23700 fluorescence intensity (a.u.); “ACATCAATCTTGAAAATCACGATGAACATGACGTGGATTTCGGAGTCACCTAGTGCAG”: 19700 fluorescence intensity (a.u.).

As for “CGAAATGGGAGGCGGGGTTTAGGGTTTCCGGCGGGGAGGGCGGAGTCACCTAGTGCAG”, the binding signal is 5390 fluorescence intensity (a.u.). With “GAGATAAATGATCAACTAGTCCGTGAATTTGACACCGATGCGGAGTCACCTAGTGCAG” the figure was 7110 fluorescence intensity (a.u.).

As for “GATTATTGATTTATCTTTCAATTAATTAAGCACCTTGGTACGGAGTCACCTAGTGCAG”, the binding signal was 45200 fluorescence intensity (a.u.). With “TAATGAAATATAATTGGCAGTTCTCCTGTCGGTTTAGTTTCGGAGTCACCTAGTGCAG” the figure was 6930 fluorescence intensity (a.u.). As for “TGCAATTTATTCCATTATGCTGAATTAAACATAGAAACGCCGGAGTCACCTAGTGCAG”, the binding signal is 4340 fluorescence intensity (a.u.). Next, “ATTTTAATTAGCTAACACCATTGCGGTGGTACTATTCCAACGGAGTCACCTAGTGCAG”: 19700 fluorescence intensity (a.u.); “TTGCAATTAAGTTGATTGTTATTAAAAGACTAGGATGTTACGGAGTCACCTAGTGCAG”: 14100 fluorescence intensity (a.u.); “TCTAATCACTGTATTAGTAAATTACTGATATACCCTTAATCGGAGTCACCTAGTGCAG”: 10200 fluorescence intensity (a.u.). For “TTATTGGACGTTGATTTGTATAATTCAATAAATTATAGATCGGAGTCACCTAGTGCAG”, the binding signal was 9040 fluorescence intensity (a.u.).

As to “CATGCCTAAATTTAATTATGTAATATTGCTTTCATCTGTACGGAGTCACCTAGTGCAG”, the binding signal was 11600 fluorescence intensity (a.u.).
